Structures can show the parent of a compound that is named as a salt. Whole data set: some 2,000 compounds, median “fractional viability relative to vehicle” near 0.91, cut for the lowest 2% near 0.045. Some of the results follow.
Tested on: TYKNU
Test: fractional viability relative to vehicle; TYKNU is a high-grade serous ovarian cancer line; higher = less growth inhibition
Conditions: 72 h
In short: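 TYKNU control cells or lentiCRISPRv2 knockout derivatives were plated at 500 cells per well in duplicate into drug-stamped 384-well plates holding a ~2100-compound library at 2 or 10 μM. Culture was in RPMI 1640 with 10% FBS at 37 °C in 5% CO2, with 72 h of drug treatment. Viability was measured by Cell Titer Glo luminescence, and the averaged duplicate treatment wells were normalised to duplicate control wells at the same plate position.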

[1] = 2uM, genotype: DNM1L knockout (sgDNM1L #1)
[2] = 2uM, genotype: sgCTRLA1 (non-targeting control)
[3] = 10uM, genotype: DNM1L knockout (sgDNM1L #1)
[4] = 10uM, genotype: sgCTRLA1 (non-targeting control)

| SMILES | fractional viability [1] | fractional viability [2] | fractional viability [3] | fractional viability [4] |
| --- | --- | --- | --- | --- |
| C/C(=N\NC(=S)N1CCC1)c1ccccn1 | 0.171 | 0.137 | 0.225 | 0.167 |
| COc1cc(C)c(/C=C/C(C)=C/C=C/C(C)=C/C(=O)O)c(C)c1C [Acitretin] | 0.966 | 1.16 | 0.811 | 1 |
| C[C@@H]1COCCN1c1cc(C2([S@](C)(=N)=O)CC2)nc(-c2cc[nH]c3nccc2-3)n1 | 0.189 | 0.127 | 0.136 | 0.0834 |
| CC(C)(F)C[C@H](N[C@@H](c1ccc(-c2ccc(S(C)(=O)=O)cc2)cc1)C(F)(F)F)C(=O)NC1(C#N)CC1 [Odanacatib (MK-0822)] | 1.09 | 1.09 | 1.02 | 0.997 |
| CC(C)C[C@@H](C=O)NC(=O)[C@H](CC(C)C)NC(=O)[C@H](CC(C)C)NC(=O)OCc1ccccc1 | 0.0732 | 0.0639 | 0.0706 | 0.0779 |
| COC1=CC(c2cc3ccccc3[nH]2)=N/C1=C\c1[nH]c(C)cc1C [Obatoclax Mesylate (GX15-070)] | 0.16 | 0.159 | 0.1 | 0.0774 |
| N=C(N)NC(=N)N1CCOCC1 [Moroxydine HCl] | 0.969 | 1.12 | 0.888 | 1.12 |
| CC(C)(C#N)c1ccc(N2C(=O)OCc3cnc4ccc(-c5cnc6ccccc6c5)cc4c32)cc1 | 0.66 | 0.59 | 0.252 | 0.16 |
| CC(=O)Oc1cccc2c1C(=O)c1c(OC(C)=O)cc(C(=O)O)cc1C2=O [Diacerein] | 0.843 | 1.16 | 0.914 | 1.12 |
| CCN(CC)Cc1ccc2cc(COC(=O)Nc3ccc(C(=O)NO)cc3)ccc2c1 [Givinostat (ITF2357)] | 0.523 | 0.131 | 1.04 | 0.0654 |
| COc1ccc(NS(=O)(=O)c2ccc(N)cc2)nn1 [Sulfamethoxypyridazine] | 0.833 | 1.24 | 0.809 | 1.05 |
| Nc1ccc(C(=O)NCC(=O)O)cc1 [4-Aminohippuric Acid] | 0.943 | 1.08 | 0.815 | 1.09 |
| CCCC(=O)O[C@]1(C(=O)COC(C)=O)CC[C@H]2[C@@H]3C[C@H](F)C4=CC(=O)C=C[C@]4(C)[C@@]3(F)[C@@H](O)C[C@@]21C [Difluprednate] | 1.2 | 1.09 | 0.679 | 1.05 |
| O=C(c1ccc(C(=O)N2CCC(N3CCCC3)CC2)c(Nc2ccccc2)c1)N1CCC(N2CCCC2)CC1 | 0.857 | 1 | 0.708 | 0.973 |
| OC[C@H]1O[C@@H](Oc2ccc(O)cc2)[C@H](O)[C@@H](O)[C@@H]1O [Arbutin] | 1.09 | 1.02 | 1.06 | 1.07 |
| NC(=O)c1cnc2[nH]ccc2c1N[C@@H]1[C@@H]2CC3C[C@H]1C[C@@](O)(C3)C2 | 0.909 | 0.934 | 0.701 | 0.589 |
| CCN1CCN(C(=O)N[C@@H](C(=O)N[C@@H]2C(=O)N3[C@@H]2SC(C)(C)[C@@H]3C(=O)O)c2ccccc2)C(=O)C1=O [Piperacillin Sodium] | 0.777 | 1.04 | 0.757 | 1 |

| SMILES | fractional viability [1] | fractional viability [2] | fractional viability [3] | fractional viability [4] |
| --- | --- | --- | --- | --- |
| CN(NC(=O)CC(=O)NN(C)C(=S)c1ccccc1)C(=S)c1ccccc1 [Elesclomol (STA-4783)] | 0.0609 | 0.0221 | 0.0751 | 0.0222 |
| CO[C@@H]1[C@@H](OC(N)=O)[C@@H](O)[C@H](Oc2ccc3c(O)c(NC(=O)c4ccc(O)c(CC=C(C)C)c4)c(=O)oc3c2C)OC1(C)C [Novobiocin Sodium] | 0.882 | 1.17 | 0.895 | 1.19 |
| CC(=O)OCOC(=O)CN(CC(=O)OCOC(C)=O)c1ccccc1OCCOc1ccccc1N(CC(=O)OCOC(C)=O)CC(=O)OCOC(C)=O | 0.391 | 0.569 | 0.0416 | 0.0639 |
| NC(=O)N/N=C/c1ccc([N+](=O)[O-])o1 [Nitrofural] | 1.34 | 1.13 | 1.26 | 1.2 |
| O=C(O[C@H]1CN2CCC1CC2)N1CCc2ccccc2[C@@H]1c1ccccc1 [Solifenacin succinate] | 1.19 | 1.07 | 0.755 | 1.03 |
| O=S(=O)(c1ccccc1)c1cnc2c(N3CCNCC3)cccc2c1 | 1.13 | 1.14 | 0.776 | 1.09 |
| CC(C)C[C@H](NC(=O)[C@H](CCc1ccccc1)NC(=O)CN1CCOCC1)C(=O)N[C@@H](Cc1ccccc1)C(=O)N[C@@H](CC(C)C)C(=O)[C@@]1(C)CO1 [Carfilzomib (PR-171)] | 0.0773 | 0.0587 | 0.0559 | 0.057 |
| CCCC(=O)Nc1ncnc2c1ncn2[C@@H]1O[C@@H]2COP(=O)(O)O[C@H]2[C@H]1OC(=O)CCC [Dibutyryl-cAMP (Bucladesine)] | 0.722 | 0.883 | 0.811 | 0.769 |
| CN(C)CCC[C@@]1(c2ccc(F)cc2)OCc2cc(C#N)ccc21 [Escitalopram Oxalate] | 0.968 | 1.16 | 0.756 | 1.05 |
| CC1=CC(=O)NS(=O)(=O)O1 [Acesulfame Potassium] | 1.16 | 1.13 | 0.791 | 1.17 |
| CN1CCCC(n2nc(Cc3ccc(Cl)cc3)c3ccccc3c2=O)CC1 (stereo unspecified) [Azelastine HCl] | 0.953 | 0.941 | 0.594 | 0.543 |
| COc1ccc(COc2ccc(Cc3cnc(N)nc3N)cc2OC)cc1 | 0.783 | 0.983 | 0.675 | 0.625 |
| Cc1cc([N+](=O)[O-])ccc1NS(=O)(=O)c1cc(Cl)ccc1Cl | 0.83 | 0.925 | 0.601 | 0.59 |
| O=C(O)CCNc1cc(N2CCc3ccccc3CC2)nc(-c2ccccn2)n1 | 0.937 | 1.07 | 0.854 | 0.738 |
| O=C(N/N=C/c1ccc(O)c(O)c1)c1cc2ccccc2cc1O [Dynasore] | 0.705 | 0.953 | 0.588 | 0.552 |
| C=CC[C@@H]1/C=C(\C)C[C@H](C)C[C@H](OC)[C@H]2O[C@@](O)(C(=O)C(=O)N3CCCC[C@H]3C(=O)O[C@H](/C(C)=C/[C@@H]3CC[C@@H](O)[C@H](OC)C3)[C@H](C)[C@@H](O)CC1=O)[C@H](C)C[C@@H]2OC [Tacrolimus (FK506)] | 0.767 | 1.05 | 0.47 | 0.85 |
| O=C([O-])c1ccccc1O.[Na+] [Sodium salicylate] | 1.08 | 1.09 | 0.913 | 1.03 |
